Experimental data published in US20220017636A1 (Amgen, published 2022).

Assays:
Test in all cases: flow cytometry, peptide-loaded T2 cells;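 also: binding of single-chain Fv antibody constructs, raised in XenoMouse, to peptide-pulsed T2 cells measured by flow cytometry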
[1] = target: T1, SLK peptide complexed with HLA-A*02:01 on T2 cells (human)
T1 construct: whole, on cells

[2] = target: T2, DPYSL4 peptide complexed with HLA-A*02:01 on T2 cells (human)
T2 construct: whole, on cells

[3] = target: T3, MAGEB2 peptide … (SEQ ID NO: 1) complexed with HLA-A*02:01 on the cell surface (human)
T3 construct: whole, on cells; also called pMAGE-HLA; MAGEB2 pMHC

[4] = target: T4, KEA peptide complexed with HLA-A*02:01 on T2 cells (human)
T4 construct: whole, on cells

[5] = target: T5, MYOF peptide complexed with HLA-A*02:01 on T2 cells (human)
T5 construct: whole, on cells

[6] = target: T6, STXBP5 peptide complexed with HLA-A*02:01 on T2 cells (human)
T6 construct: whole, on cells

[7] = target: T7, ADF peptide complexed with HLA-A*02:01 on T2 cells (human)
T7 construct: whole, on cells

[8] = target: T8, CNDP2 peptide complexed with HLA-A*02:01 on T2 cells (human)
T8 construct: whole, on cells; also called CNPD2

[9] = target: T9, MB peptide complexed with HLA-A*02:01 on T2 cells (human)
T9 construct: whole, on cells

[10] = target: T10, COX14 peptide complexed with HLA-A*02:01 on T2 cells (human)
T10 construct: whole, on cells

Row | Signal/background [1] | Signal/background [2] | Signal/background [3] | Signal/background [4] | Signal/background [5] | Signal/background [6] | Signal/background [7] | Signal/background [8] | Signal/background [9] | Signal/background [10] | Binder
1 | 1.1 | 1 | 22 | 1 | 1 | 1 | 1.1 | 1 | 1.1 | 1 | 18081-B6 (scFv, scFv in bacterial lysate, detected with anti-Flag M2) scFv: EVQLLESGPMLVKPTQTLTLTCTFSGFSFTTHKMGVDWIRQPPGKALEWLALIYWNDDKRYSPSLQSRLTITKDTSKNQVVLTMTNMDPVDTATYYCAYRRYNWNYENWFDPWGQGTLVTVSSGGGGSGGGGSGGGGSELVMTQSPSSLSASVGDRVTIT[letters of about 80 residues not shown]FGPGTKLEIK
2 | 1.1 | 1.2 | 36 | 1 | 1.1 | 1 | 1 | 0.9 | 1 | 1 | 18089-D8 (scFv, scFv in bacterial lysate, detected with anti-Flag M2) scFv: EVQLLESGPMLVKPTQTLTLTCTFSGFSFTTHKMGVDWIRQPPGKALEWLALIYWNDDKRYSPSLQSRLTITKDTSKNQVVLTMTNMDPVDTATYYCAYRRYNWNYENWFDPWGQGTLVTVSSGGGGSGGGGSGGGGSELVMTQSPDSLSASVGDRVTIT[letters of about 80 residues not shown]FGQGTRLEIK
3 | 1.2 | 1.2 | 36 | 0.9 | 1 | 1 | 1 | 1 | 1 | 1 | 18081-F9 (scFv, scFv in bacterial lysate, detected with anti-Flag M2) scFv: EVQLLESGPMLVKPTQTLTLTCTFSGFSFTTHKMGVDWIRQPPGKALEWLALIYWNDDKRYSPSLQSRLTITKDTSKNQVVLTMTNMDPVDTATYYCAYRRYNWNYENWFDPWGQGTLVTVSSGGGGSGGGGSGGGGS[letters of about 100 residues not shown]FGPGTKVEIK
4 | 1 | 1 | 229 | 1 | 1 | 1 | 1 | 1 | 1 | 0.9 | 18181-H7 (scFv, scFv in bacterial lysate, detected with anti-Flag M2) scFv: EVQLLESGPGLVKPSQTLSLTCTVSGDSISSNPYYWSWIRQHPGKGLEWIGYISYSGITNYNPSLKSRVTMSVDTSKNQFSLKLTSLTAADTAVYYCAREKMWFGVLNYYYGMDVWGQGTTVTVSSGGGGSGGGGSGGGGSELVMTQTPLSLPVTPGEPASIS[letters of about 80 residues not shown]FGQGTKVEIK
